# Results from PubChem BioAssay AID1508624 (National Center for Advancing Translational Sciences (NCATS), 2021).
# About 120 (0.25%) of roughly 48,000 compounds were called active. Another 4% or so got no clear call; they are omitted. Calls follow the shape of the dose curve; as a rule, active = well fitted activation curve with a large enough effect; inconclusive = small, poorly fitted or top-dose-only effect, or another doubt; inactive = no such curve, though single readings can be large or run the other way. Some of the results follow.
# Assay: Primary qHTS for Identification of Small Molecule Activators of Huntingtin-Antisense Promoter Activity; also: nearly all actives have a fitted effect of over 55% in size
# Conditions: HEK293 HTT-AS promoter firefly luciferase reporter, 24 h; series mostly up to 57.5 µM; activity change, positive = activation: at the top concentration
# Procedure, shortened: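 Luminescence was read after Dual-Glo reagent and a 10 min room-temperature incubation. Values were normalized to vehicle (0% activity) and zero RLU (-100% activity). Reporter HEK293 cells had been exposed to compounds (up to 57.5 uM final) for 24 h.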
row,Structure (SMILES),"activity change, positive = activation"
1,COc1ccc(Nc2c3c(nc4ccc(NC(=O)c5cc(Cl)ccc5OC)cc24)CCCC3)cc1OC,inactive: -94.7%
2,O=C(Nc1ccc(C(=O)OCc2cc(=O)n3ccsc3n2)cc1)c1cccc(F)c1,inactive: 5.77%
3,COc1ccc(OC)c(CNC(=O)C2CCN(S(=O)(=O)c3ccc4[nH]c(=O)oc4c3)CC2)c1,inactive: -10.4%
4,COc1ccc(NC(=O)c2c(NCc3cccs3)sc3c2CCCCC3)c(OC)c1,inactive: 0%
5,Cc1cc(Br)ccc1NC(=O)CCNS(=O)(=O)c1cccc2nonc12,inactive: -17.9%
6,O=C(Nc1ccc(Br)cc1F)c1cc2nc(-c3ccco3)cc(C(F)(F)Cl)n2n1,inactive: -0.115%
7,CCCOc1ccc2nc(NC(=O)OC)[nH]c2c1,inactive
8,O=S(=O)(c1ccc(OC(F)(F)F)cc1)N1CCC(c2nc3ccccc3s2)CC1,inactive: -9.13%
9,COc1ccc2c(c1)CC(C(=O)Nc1ccc(OC)cc1OC)CO2 (configuration not stated),inactive: -5.9%
10,CCOc1ccc(OCC)c(Nc2nc3ccc(C(=O)c4ccccc4)cc3n3cnnc23)c1,inactive: -6.91%
11,CC(=O)O[C@]1(C(C)=O)CC[C@H]2[C@@H]3C=C(Cl)C4=CC(=O)[C@@H]5C[C@H]5[C@]4(C)[C@@H]3CC[C@@]21C,inactive: -51.5%
12,CCOC(=O)c1ccc(N2C(=O)c3n[nH]c(-c4cccs4)c3C2c2ccc(OC)cc2OC)cc1 (configuration not stated),inactive: -51%
13,C[C@@H](O)[C@H]1C(=O)N2C(C(=O)OCOC(=O)C(C)(C)C)=C(SC3CN(C4=NCCS4)C3)[C@H](C)[C@H]12,inactive: -20.5%
14,Cc1ccc(NC(=O)c2ccc(N(Cc3ccccc3)S(C)(=O)=O)cc2)cc1,inactive: -39.7%
15,COc1cc(OC)c(C=CS(=O)(=O)Cc2ccc(OC)c(NCC(=O)O)c2)c(OC)c1,inactive: -41.6%
16,CC(C)c1ccc(C2=NC(c3ccncc3)=Nc3ccc(F)cc3N2)cc1,inactive: -5.93%
17,CCOC(=O)c1c(S(=O)(=O)N2CCN(c3cccc(C(F)(F)F)c3)CC2)c(C)n(C)c1C,"inactive: 1.24% [at 11.5 µM, percent change from vehicle, -100% = no light]"
18,CCOc1ccc(Cn2c(CNS(=O)(=O)c3ccc(CC)cc3)nc3cccnc32)cc1,inactive: -18.6%
19,CCCn1cc(S(=O)(=O)c2ccc(CC)cc2)c(=O)c2cc(F)c(N3CCN(C)CC3)cc21,inactive: -5.2%
20,COc1ccc(OC)c(CCNC(=O)c2nn(C)c3c2CSc2ccccc2-3)c1,inactive: -18.2%
21,CCC1CCc2c(sc(NC(=O)C3c4ccccc4Oc4ccccc43)c2C(=O)OC)C1 (configuration not stated),inactive: -26.9%
22,Cc1ccc(C(=O)c2oc3ccccc3c2NC(=O)C(C)Oc2ccccc2Cl)cc1 (configuration not stated),inactive: -6.11%
23,CCOC(=O)N1CCC(NC(=O)c2ccc3c(c2)N(Cc2ccc(Cl)cc2)C(=O)c2ccccc2S3(=O)=O)CC1,inactive: -32%

row,Structure (SMILES),"activity change, positive = activation"
1,COC(=O)c1sc2cccc(F)c2c1S(=O)(=O)Nc1cc(C)c(Cl)cc1OC,inactive: -24.7%
2,CCCNC(=O)C1CCC(Cn2c(=O)c3sccc3n(CC(=O)N3CCCC3)c2=O)CC1 (configuration not stated),inactive: -6%
3,CCc1cccc(C)c1NC(=O)CN1C(=O)c2ccccc2Sc2ncccc21,inactive: -12.5%
4,CCCNC(=O)CN1C(=O)c2c(c3ccccc3n2C)C1c1ccc(OC)cc1 (configuration not stated),inactive: -22%
5,COc1ccc(CNC(=O)c2cc3oc4ccccc4c3n2C)cc1OC,inactive: -22.5%
6,CN[C@@H]1[C@@H](O)[C@@H](O[C@@H]2[C@H](O)[C@H](O[C@H]3OC(CN)=CC[C@H]3N)[C@@H](N)C[C@H]2N)OCC1(C)O (some centres not stated),inactive: -1.2%
7,CCc1ccc(S(=O)(=O)c2nnn3c2nc(N2CCC(C(N)=O)CC2)c2cc(Cl)ccc23)cc1,inactive: -14.1%
8,CCCCOc1ccc(OCCCN2CCOCC2)cc1,inactive: 2.65%
9,CCC(=O)Nc1ccccc1-c1nc2ccccc2n(CC(=O)Nc2ccc(C)c(C)c2)c1=O,inactive: -19.9%
10,CCc1ccc(NC(=O)C2CCN(S(=O)(=O)c3c(C)noc3C)CC2)cc1,inactive: -14.7%
11,Cn1c(=O)c2cc(C(=O)Nc3cccc(C#N)c3)sc2c2ccccc21,inactive: -5.48%
12,COc1ccc(C2=NN(CC(=O)NCCc3ccccc3)C(=O)CC2)cc1,inactive: -8.26%
13,COC(=O)c1ccc(NC(=O)NC(C)c2c(-n3cccc3)sc(C)c2C)cc1 (configuration not stated),inactive: -19.2%
14,COc1ccc(Cl)cc1NC(=O)c1sc2nc(-c3ccc(OC)c(OC)c3)ccc2c1N,inactive: -33%
15,O=C(NCc1ccccc1)c1ccc2c(c1)N(Cc1ccc(F)cc1)CCS2,inactive: -23.8%
16,COc1ccc(CCNC(=O)CSCc2nc(-c3cccc(C)c3)oc2C)cc1OC,inactive: -33.5%
17,O=C(NC1CCCC1)c1ccc(CSc2nc3cccnc3n2Cc2ccccc2)cc1,inactive: -19.8%
18,COc1ccccc1Cc1nc2ccccc2nc1SCC(=O)N1CCc2ccccc21,inactive: 0.231%
19,COc1cc(N)c(Cl)cc1C(=O)NC1CCN(Cc2ccccc2)CC1,inactive: -12%
20,CCOC(=O)c1ccc(NC(=O)CSc2nccn2-c2ccc(OCC)cc2)cc1,inactive: -32.5%
21,FC(F)(F)c1cccc(-c2nnn3c2nc(NC2CCCCC2)c2ccccc23)c1,inactive: -3.01%
22,Cc1cccc(N2CCN(C(=O)Cn3cnc4sc(C)c(S(=O)(=O)N5CCN(c6ncccn6)CC5)c4c3=O)CC2C)c1 (configuration not stated),inactive: -17.2%
23,CCC(C)NC(=O)C1CCN(C(=O)c2ccc(-n3ccc4ccccc43)s2)CC1 (configuration not stated),inactive: 9.09%

row,Structure (SMILES),"activity change, positive = activation"
1,COc1ccccc1CCNC(=O)Cc1c(C)c2c(cc(C)c3c(C)c(C)oc32)oc1=O,inactive: -3.75%
2,COc1cc([N+](=O)[O-])ccc1NC(=O)N1CCN(c2cc(-c3noc(C)n3)ccc2C)CC1,inactive: -23.9%
3,S=P(N1CC1)(N1CC1)N1CC1,inactive
4,COc1ccc(NC(=O)C(C)n2nnc3sc(-c4ccccc4)cc3c2=O)cc1Cl (configuration not stated),inactive: 19.1%
5,CCOc1ccc(CCNC(=O)c2cc(=O)[nH]c3ccc(S(=O)(=O)N4CCCCC4)cc23)cc1OCC,inactive: -8.73%
6,CCOc1ccccc1CNC(=O)C1CCN(S(=O)(=O)c2c(C)noc2/C=C/c2ccc(C)cc2)CC1,inactive: -6.48%
7,CC(C)(C)NC(=O)Nc1cccc(Nc2ncc(F)c(NC(C)(C)CO)n2)c1,inactive: -26.3%
8,CCn1ccc2cc(S(=O)(=O)N3CCCN(C(=O)Nc4ccc(C)c(F)c4)CC3)ccc21,inactive: -29.5%
9,CCCc1ccc(OCC(=O)Nc2sc3c(c2C(=O)OC)CCCCC3)cc1,inactive: -11.2%
10,CC(C)CC(=O)NCC1(N(C)C)CCCCC1,inactive: 3.05%
11,Cc1cccc(N(C)c2nc3ccc(C)cc3n3cnnc23)c1,inactive: 13.5%
12,CCCCOc1ccccc1C(=O)Nc1nonc1-c1ccccc1,inactive: -42%
13,COc1ccc(CNC(=O)C(C)N2Cc3ccccc3C2=O)cc1 (configuration not stated),inactive: 5.79%
14,Cc1nc(-c2ccccc2)sc1CCNC(=O)C(=O)Nc1ccc2c(c1)OCCO2,inactive: -3.71%
15,Cc1ccc(CNC(=O)CCCN2C(=O)c3cccnc3Oc3ccc(Cl)cc32)cc1,inactive: -26.2%
16,COc1cc(OC)c(NC(=O)N2CCc3c(sc4c3CCCC4)C2c2ccccc2)cc1Cl (configuration not stated),inactive: -18.2%
17,O=C(Nc1nnc(S(=O)(=O)N2CCCCCC2)s1)c1ccccc1Cl,inactive: -16.7%
18,CCOc1ccc(NC(=O)c2cc3c(s2)-c2ccccc2OC3)cc1,inactive: -9.89%
19,Cc1cccc(NC(=O)C(Cc2ccccc2)n2cccc2)c1C (configuration not stated),inactive: -19.4%
20,COc1cccc(CNC(=O)c2ccc(-c3nc(CS(=O)(=O)c4ccccc4)c(C)o3)cc2)c1,inactive: -36%
21,COC(=O)c1ccc2c(=O)n(CCCCCC(=O)N3CCN(c4cc(Cl)ccc4C)CC3)c(=O)[nH]c2c1,inactive: -64.7%
22,CN(C)CCNC(=O)CN1C(=O)CCn2nc(-c3cn(C)c4ccccc34)cc21,inactive: 0.159%
23,Cc1cc(C)cc(-n2nnc(-c3nsc(NC(=O)c4ccccc4Cl)n3)c2C)c1,inactive: -22%

row,Structure (SMILES),"activity change, positive = activation"
1,CCc1ccc(NC(=O)Cn2ncc3c(C)n(Cc4cccc(Cl)c4)c(C)c3c2=O)cc1,inactive: -5.36%
2,COc1ccccc1Nc1c2c(nc3ccc(NC(=O)c4cccc(OC)c4OC)cc13)CCCC2,inactive: -51.1%
3,COC(=O)c1cc2sccc2n1Cc1nc(-c2cccc(Br)c2)oc1C,inactive: 6.42%
4,CC(=O)Nc1ccc(S(=O)(=O)NCc2ccc(C(=O)NCc3ccc(Cl)cc3)cc2)cc1,inactive: -28.1%
5,O=C(Nc1ccc(C(F)(F)F)cc1)C1CCCN(S(=O)(=O)c2cccc3cccnc23)C1 (configuration not stated),inactive: -32.1%
6,CCC1CCCCN1C(=O)CSc1n[nH]c(-c2ccccc2Cl)n1 (configuration not stated),inactive: 17.2%
7,CCN(c1ccc(OC)cc1)S(=O)(=O)c1nnc(NC(=O)c2ccccc2C)s1,inactive: -33.3%
8,Cc1ccccc1OCC(=O)Nc1ccc(OCc2cc(=O)n3ccsc3n2)cc1,inactive: -4.08%
9,CCOC(=O)c1cccc(NC(=O)N2CCC(CN3CCc4ccccc4C3)CC2)c1,inactive: -12.3%
10,O=C(Cc1ccc(F)cc1)NCc1nc2cccnc2n1Cc1ccc(F)cc1,inactive: -13.3%
11,FC(F)(F)c1cccc(N2CCN(Cc3nnc(-c4ccc5c(c4)OCO5)o3)CC2)c1,inactive: -4.1%
12,COc1ccc(CCNC(=O)C2CCN(c3ncnc4c3nc3n4CCCCC3)CC2)c(OC)c1,inactive: -17.9%
13,CCOc1ccc(S(=O)(=O)c2c[nH]c3ccccc3c2=O)cc1,inactive: -1.75%
14,Cc1ccccc1C(=O)Nc1ccc2nc(Nc3cccc(C(F)(F)F)c3)cc(C)c2c1,inactive: -45.2%
15,NS(=O)(=O)c1ccc(CCNC(=O)c2ccc3nc(Cc4ccccc4)oc3c2)cc1,inactive: -8.31%
16,CCCc1cc(=O)oc2cc(C)c3c(-c4cccc(OC)c4)coc3c12,inactive: -6.21%
17,CC(C)(C)C1CCc2c(sc(NC(=O)CCC(=O)O)c2C(=O)Nc2ccccc2C(F)(F)F)C1 (configuration not stated),inactive: -54.5%
18,CC1CCCN(Cc2nc3c(c(=O)n(C)c(=O)n3C)n2Cc2ccc(Cl)cc2Cl)C1 (configuration not stated),inactive: 12.5%
19,COc1cccc(-c2nc(SCC(=O)NCC3CCCO3)c(-c3ccc(F)cc3)[nH]2)c1 (configuration not stated),inactive: -13.9%
20,CCOC(=O)c1cccc(NC(=O)N2CC(CC)Sc3ccccc32)c1 (configuration not stated),inactive: -7%
21,CNC(=O)CN1CCC(Oc2cc3c(Nc4cccc(Cl)c4F)ncnc3cc2OC)CC1,inactive: -25.7%
22,COc1ccc(CCNC(=O)CCCCCn2c(=O)[nH]c3cc(OC)c(OC)cc3c2=O)cc1OC,inactive: 0.135%
23,Cc1ccc(C)c(Cn2c(C)c(CNCc3ccc(F)cc3)c(C(=O)O)c2C)c1,inactive: -17.8%
